Test results reported in article PMC11995724, “Antibiotic target discovery by integrated phenotypic and activity-based profiling of electrophilic fragments” (Cell chemical biology, 2025).
In all, about 3,200 compounds went through this assay and about 110 (3.4%) showed an effect of 50% or more. The list shows a part of the results.

Each compound was assayed on T1, V. cholerae SAD30. Settings: relative growth, OD600, LB; 25 µM; inhibitor.
T1 construct: SAD30
Set-up: species or system S. aureus MSSA476 (TSB) or V. cholerae SAD30 (LB); 384-well bacterial growth screen at 25 uM, OD600 relative to DMSO control

Compound | % of control remaining
C=CC(=O)NCc1coc(-c2ccc(C)cc2)n1 [2-F13, N-{[2-(4-methylphenyl)-1,3-oxazol-4-yl]methyl}prop-2-enamide] | 87.4168%
O=C(CCl)NC1CC(=O)N(c2cccc(C(F)(F)F)c2)C1 (stereo not shown) [5-E09, 2-chloro-N-{5-oxo-1-[3-(trifluoromethyl)phenyl]pyrrolidin-3-yl}acetamide] | 100.2%
CC(Cl)C(=O)NCC1CCCCC1 (stereo not shown) [4-I10, 2-chloro-N-(cyclohexylmethyl)propanamide] | 96.6142%
C=CC(=O)NC(C)Cn1cc(C(=O)O)cn1 (stereo not shown) [3-D10, 1-[2-(prop-2-enamido)propyl]-1H-pyrazole-4-carboxylic acid] | 102.5%
C[C@H]1CN(C(=O)CCl)CCN1C(=O)c1cscn1 [5-L05, 2-chloro-1-[(3S)-3-methyl-4-(1,3-thiazole-4-carbonyl)piperazin-1-yl]ethan-1-one] | 86.0775%
CC(Cl)C(=O)NC1CC(C)N(c2ccccc2)C1=O (stereo not shown) [5-B19, 2-chloro-N-(5-methyl-2-oxo-1-phenylpyrrolidin-3-yl)propanamide] | 94.3154%
O=C(CCl)NCc1ccccc1S(=O)(=O)N1CCOCC1 [4-F22, 2-chloro-N-{[2-(morpholine-4-sulfonyl)phenyl]methyl}acetamide] | 115.247%
C=CC(=O)N1CCC(C(=O)N2CCN(c3ccnc(C)n3)CC2)CC1 [2-L06, 1-{4-[4-(2-methylpyrimidin-4-yl)piperazine-1-carbonyl]piperidin-1-yl}prop-2-en-1-one] | 88.9607%
CC(C)C(=O)Nc1ccc(C(=O)C(C)Cl)cc1 (stereo not shown) [10-E08, N-[4-(2-chloropropanoyl)phenyl]-2-methylpropanamide] | 100.058%
C=CC(=O)N(CC)CC(=O)N1CCC(c2nnc(C)o2)CC1 [3-A08, N-ethyl-N-{2-[4-(5-methyl-1,3,4-oxadiazol-2-yl)piperidin-1-yl]-2-oxoethyl}prop-2-enamide] | 109.557%
O=C(CCl)NC(Cn1cncn1)c1ccccc1 (stereo not shown) [7-N03, 2-chloro-N-[1-phenyl-2-(1H-1,2,4-triazol-1-yl)ethyl]acetamide] | 95.1594%
O=C(CCl)N1CCN(Cc2ccon2)CC1 [5-O04, 2-chloro-1-{4-[(1,2-oxazol-3-yl)methyl]piperazin-1-yl}ethan-1-one] | 105.411%
C=CC(=O)N1CCC(c2nc(N(C)C)no2)CC1 [2-K09, 1-{4-[3-(dimethylamino)-1,2,4-oxadiazol-5-yl]piperidin-1-yl}prop-2-en-1-one] | 90.5047%
C=CC(=O)N1CC[C@H](Oc2ccccc2)C1 [3-I18, 1-[(3S)-3-phenoxypyrrolidin-1-yl]prop-2-en-1-one] | 86.6201%
CC(Cl)C(=O)Nc1ccc(OCc2ccccc2)cc1 (stereo not shown) [6-O13, N-[4-(benzyloxy)phenyl]-2-chloropropanamide] | 80.8418%
CC(C)Oc1ccccc1C=C(C#N)C(=O)Nc1ccccc1 [8-M17, 2-cyano-N-phenyl-3-[2-(propan-2-yloxy)phenyl]prop-2-enamide] | 71.312%
COc1ccc(C(=O)CCl)c(OC)c1 [10-G18, 2-chloro-1-(2,4-dimethoxyphenyl)ethan-1-one] | 111.748%
Cc1nccn1Cc1ccc(NC(=O)C(C#N)=Cc2ccco2)cc1 [9-H12, 2-cyano-3-(furan-2-yl)-N-{4-[(2-methyl-1H-imidazol-1-yl)methyl]phenyl}prop-2-enamide] | 89.8029%
C=CC(=O)NCc1ccnn1CC(F)(F)F [1-O18, N-{[1-(2,2,2-trifluoroethyl)-1H-pyrazol-5-yl]methyl}prop-2-enamide] | 89.8356%
C=CC(=O)NCC1CS(=O)(=O)c2ccccc2O1 (stereo not shown) [3-N17, N-[(4,4-dioxo-2,3-dihydro-1,4lambda6-benzoxathiin-2-yl)methyl]prop-2-enamide] | 95.7949%
N#CC(=Cc1ccccc1OCc1ccccc1)C(=O)NC(N)=O [8-F05, (2-{[2-(benzyloxy)phenyl]methylidene}-2-cyanoacetyl)urea] | 82.053%
C=CC(=O)N(C)CC(=O)N1CCC(c2nc3c(s2)CCCC3)CC1 [2-N04, N-methyl-N-{2-oxo-2-[4-(4,5,6,7-tetrahydro-1,3-benzothiazol-2-yl)piperidin-1-yl]ethyl}prop-2-enamide] | 91.8942%
C=CC(=O)NC1(c2ccccc2)CCCC1 [1-O15, N-(1-phenylcyclopentyl)prop-2-enamide] | 88.7892%
CC(=Cc1ccccc1)C=C(C#N)C(=O)Nc1ccc2c(c1)OCCO2 [9-J07, 2-cyano-N-(2,3-dihydro-1,4-benzodioxin-6-yl)-4-methyl-5-phenylpenta-2,4-dienamide] | 90.6186%
N#CC(=Cc1ccc(C#N)cc1)C(=O)Nc1ccc(F)c(Cl)c1 [9-A22, N-(3-chloro-4-fluorophenyl)-2-cyano-3-(4-cyanophenyl)prop-2-enamide] | 91.8423%
C=CC(=O)NCCCN1CCCS1(=O)=O [3-H19, N-[3-(1,1-dioxo-1lambda6,2-thiazolidin-2-yl)propyl]prop-2-enamide] | 89.796%
Cn1c(N)c(N2C(=O)C=CC2=O)c(=O)[nH]c1=O [10-P05, 6-amino-5-(2,5-dioxo-2,5-dihydro-1H-pyrrol-1-yl)-1-methyl-1,2,3,4-tetrahydropyrimidine-2,4-dione] | 104.422%
C=CC(=O)NCc1ccc(N2CC(C)CS2(=O)=O)cc1 (stereo not shown) [3-J19, N-{[4-(4-methyl-1,1-dioxo-1lambda6,2-thiazolidin-2-yl)phenyl]methyl}prop-2-enamide] | 89.4431%
